Laboratory results reported in a compilation of properties of binary mixtures (doi:10.1016/j.molliq.2011.08.008).
Some of these densities may be calculated back from excess volumes.

Experiment: xn = mol fraction of the nth substance listed
Conditions: 100 kPa

Structure (SMILES): CCOCCOCCOCCO + CCCC[n+]1ccn(C)c1.F[P-](F)(F)(F)(F)F
- mass density (288.15 K, x2 = 0.1123): 1078.3 kg/m3
- mass density (288.15 K, x2 = 0.3079): 1157.6 kg/m3
- mass density (288.15 K, x2 = 0.4014): 1191.3 kg/m3
- mass density (288.15 K, x2 = 0.5002): 1225.1 kg/m3
- mass density (288.15 K, x2 = 0.6006): 1257.7 kg/m3
- mass density (288.15 K, x2 = 0.7035): 1289.7 kg/m3
- mass density (288.15 K, x2 = 0.8015): 1318.9 kg/m3
- mass density (288.15 K, x2 = 0.9075): 1350.2 kg/m3
- mass density (293.15 K, x2 = 0.0558): 1048.3 kg/m3
- mass density (293.15 K, x2 = 0.1123): 1073.9 kg/m3
- mass density (293.15 K, x2 = 0.2121): 1116.3 kg/m3
- mass density (293.15 K, x2 = 0.3079): 1153.2 kg/m3
- mass density (293.15 K, x2 = 0.4014): 1187 kg/m3
- mass density (293.15 K, x2 = 0.5002): 1220.8 kg/m3
- mass density (293.15 K, x2 = 0.6006): 1253.5 kg/m3
- mass density (298.15 K, x2 = 0.0558): 1043.9 kg/m3
- mass density (298.15 K, x2 = 0.1123): 1069.5 kg/m3
- mass density (298.15 K, x2 = 0.2121): 1111.9 kg/m3
- mass density (298.15 K, x2 = 0.3079): 1148.9 kg/m3
- mass density (298.15 K, x2 = 0.4014): 1182.7 kg/m3
- mass density (298.15 K, x2 = 0.6006): 1249.3 kg/m3
- mass density (298.15 K, x2 = 0.7035): 1281 kg/m3
- mass density (298.15 K, x2 = 0.8015): 1310.6 kg/m3
- mass density (303.15 K, x2 = 0.0558): 1039.5 kg/m3
- mass density (303.15 K, x2 = 0.1123): 1065.1 kg/m3
- mass density (303.15 K, x2 = 0.2121): 1107.5 kg/m3
- mass density (303.15 K, x2 = 0.3079): 1144.5 kg/m3
- mass density (303.15 K, x2 = 0.4014): 1178.4 kg/m3
- mass density (303.15 K, x2 = 0.5002): 1212.3 kg/m3
- mass density (303.15 K, x2 = 0.6006): 1245.1 kg/m3
- mass density (303.15 K, x2 = 0.7035): 1276.7 kg/m3
- mass density (303.15 K, x2 = 0.9075): 1337.5 kg/m3
- mass density (308.15 K, x2 = 0.0558): 1035.1 kg/m3
- mass density (308.15 K, x2 = 0.1123): 1060.8 kg/m3
- mass density (308.15 K, x2 = 0.2121): 1103.2 kg/m3
- mass density (308.15 K, x2 = 0.3079): 1140.2 kg/m3
- mass density (308.15 K, x2 = 0.4014): 1174.1 kg/m3
- mass density (308.15 K, x2 = 0.6006): 1241 kg/m3
- mass density (308.15 K, x2 = 0.7035): 1272.5 kg/m3
- mass density (308.15 K, x2 = 0.8015): 1302.2 kg/m3
- mass density (308.15 K, x2 = 0.9075): 1333.4 kg/m3
- mass density (313.15 K, x2 = 0.2121): 1098.8 kg/m3
- mass density (313.15 K, x2 = 0.3079): 1135.9 kg/m3
- mass density (313.15 K, x2 = 0.4014): 1169.8 kg/m3
- mass density (313.15 K, x2 = 0.5002): 1203.8 kg/m3
- mass density (313.15 K, x2 = 0.6006): 1236.7 kg/m3
- mass density (313.15 K, x2 = 0.7035): 1268.2 kg/m3
- mass density (313.15 K, x2 = 0.9075): 1329.2 kg/m3
- mass density (318.15 K, x2 = 0.0558): 1026.4 kg/m3
- mass density (318.15 K, x2 = 0.1123): 1052 kg/m3
- mass density (318.15 K, x2 = 0.2121): 1094.5 kg/m3
- mass density (318.15 K, x2 = 0.3079): 1131.5 kg/m3
- mass density (318.15 K, x2 = 0.4014): 1165.5 kg/m3
- mass density (318.15 K, x2 = 0.5002): 1199.5 kg/m3
- mass density (318.15 K, x2 = 0.6006): 1232.4 kg/m3
- mass density (318.15 K, x2 = 0.7035): 1264 kg/m3
- mass density (318.15 K, x2 = 0.8015): 1293.7 kg/m3
- mass density (318.15 K, x2 = 0.9075): 1325 kg/m3
